Reference: PubChem BioAssay (NCI)
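Values below derive from 48-hour exposures of cells grown in 96-well plates, with endpoints linearly interpolated between the two concentrations bracketing the appropriate inhibition level. Here, GI50 denotes the concentration required for 50% inhibition of growth.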 A number of entries come with more than one value. The list is limited to them. There may be further records. For part of these data: The values listed for one entry are repeats (runs, samples, wells, individuals or studies). Brackets tell where a record comes from. Letters hold for one entry only.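 TGI marks complete inhibition of growth.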 For part of these data: The tests behind the records often covered other concentration ranges, not given here; a value can be the end of its range.

Assays:
Test in all cases: NCI anticancer screen, dose series, 48 h
IGROV1 ovarian = tested on: IGROV1 ovarian
OVCAR-4 ovarian = tested on: OVCAR-4 ovarian
NCI-H460 lung = tested on: NCI-H460 lung
COLO 205 colon = tested on: COLO 205 colon
HOP-92 NSCLC = tested on: HOP-92 NSCLC
SF-268 CNS = tested on: SF-268 CNS
SNB-75 CNS = tested on: SNB-75 CNS
RXF 393 renal = tested on: RXF 393 renal
NCI-H23 lung = tested on: NCI-H23 lung
UACC-257 melanoma = tested on: UACC-257 melanoma
MALME-3M melanoma = tested on: MALME-3M melanoma
HS 578T breast = tested on: HS 578T breast

Structure (SMILES) | TGI (IGROV1 ovarian) | TGI (OVCAR-4 ovarian) | TGI (NCI-H460 lung) | TGI (COLO 205 colon) | TGI (HOP-92 NSCLC) | TGI (SF-268 CNS) | TGI (SNB-75 CNS) | TGI (RXF 393 renal) | TGI (NCI-H23 lung) | TGI (UACC-257 melanoma) | TGI (MALME-3M melanoma) | GI50 (HS 578T breast)
CC(=O)c1cccc(NC2C(N)C(NC(=O)N(C)C)(C(C)O)C(C)(O)C2(O)COC(=O)c2c(C)cccc2O)c1 (configuration not stated) | 35.2 nM and 473 nM | 20.8 nM and 213 nM | 13.9 nM and 1.03 µM | 112 nM and 1.37 µM | < 1 nM and 330 nM | 15.5 nM and 1.95 µM | 17.3 nM and 1.73 µM | 8.4 nM and 348 nM | 13.3 nM and 217 nM | 23 nM and 356 nM | 2.99 nM and 194 nM | –
Cc1nc(NC(=O)N2CCC[C@H]2C(N)=O)sc1-c1ccnc(C(C)(C)C(F)(F)F)c1 | – | – | – | – | – | – | – | – | – | – | – | 1.74 µM [sample A, mean of 2 tests] and 137 nM [sample B, 1 test]
